PubChem BioAssay (NCI)
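Compound exposure: 48 hours, 5 concentrations, 96-well plates. GI50 is the concentration that inhibits growth by half. TGI: concentration producing complete growth inhibition.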

What follows are molecules tested on NCI-H322M lung (assay: NCI tumour cell line growth inhibition, 48 h).

SMILES	TGI	GI50
COc1ccc(N=C(C)C(C)=Nc2ccc(OC)cc2)cc1	> 100 µM	
COc1ccc(C(=O)Cn2c(C(=O)c3ccc(Cl)cc3)nc(-c3ccccc3)c2-c2ccccc2)cc1	> 100 µM	> 100 µM
Oc1ccc(Nc2nc(Cl)c3[nH]cnc3n2)cc1	> 100 µM	
O=S1(=O)CCC2=CC(C(F)(F)F)=CC(C(F)(F)F)=CN21	6.83 µM	
Cc1nc(Nc2ccc(Cl)cc2)sc1C(=O)Nc1cccc2c(=O)[nH][nH]c(=O)c12	> 100 µM	
O=C1OC2(CCCCC2)C(Oc2ccc(Cl)cc2)=C1F	> 100 µM	
N/C(=N\N=C/c1c(O)cc(O)cc1O)NO	> 100 µM	
N#Cc1nc(CN2C(=O)c3ccccc3C2=O)oc1N	> 100 µM	
CC(C)(C1=NC(C(C)(C)C)CO1)C1=N[C@@H](C(C)(C)C)CO1 (some centres not stated)	> 100 µM	
C[C@@H]1C[C@@H]2OC(=O)[C@]3(C)[C@H]2[C@@H](OC3(C)O)[C@]2(C)C(=O)C=C[C@@H]12 (some centres not stated)	> 100 µM	
COc1ccc2c(c1)[n+](=O)c(/C=C/C(=O)c1cc(OC)c(OC)c(OC)c1)c(C)n2[O-]	> 100 µM	35.4 µM
Cc1oc(N)c(S(=O)(=O)/C(C#N)=C/c2ccccc2[N+](=O)[O-])c1C	> 100 µM	
O=Cn1c2ccccc2c2ccccc21	> 100 µM	
O=c1[nH]c(=S)[nH]c2c1CCCN2	> 100 µM	
NCCCNCCSP(=O)(O)O	> 750 µM	
CCC1OC2(C)CC(C#N)(C#N)C1(C#N)C(=N)O2 (configuration not stated)	> 100 µM	
C=C1C(=O)O[C@@H]2C[C@@H](C)[C@@H]3C=CC(=O)[C@@]3(C)[C@@H](OC(=O)CCCC(=O)O[C@H]3[C@@H]4C(=C)C(=O)O[C@@H]4C[C@@H](C)[C@@H]4C=CC(=O)[C@]43C)[C@H]12	2.49 µM	
NC(=S)c1cccc(C2Nc3ccccc3O2)c1 (configuration not stated)	> 100 µM	
O=C(O)CCN1C(=S)CSC1=S	> 100 µM	
CCOC1=C/C(=N\Nc2ccc([N+](=O)[O-])cc2)CCC1	> 100 µM	
CC(C)C(Br)C(=O)NCC(=O)O (configuration not stated)	> 100 µM	
CCOC(=O)/C=C(/C(=O)OCC)n1cc(C)c(=O)n(Cc2cn(CCCCOC(C)=O)nn2)c1=O	> 100 µM	
Cn1cnnc1Sc1c([N+](=O)[O-])nc(-c2ccc([N+](=O)[O-])cc2)n1C	> 100 µM	
Cc1noc(-c2ccc(C(=O)O)[nH]2)c1Br	> 100 µM	
C[C@@H]1CC2(C[C@@H](C)C3[C@@H](CC4(C)CCCC5C6=CC(O)(CC[C@]34C)OC6=CC(=O)OC5(C)C)O2)OC1=O (some centres not stated)	> 100 µM	
COc1c(OC2OC(C)C(O)C(O)C2O)c(OC)c2oc(-c3ccc(O)cc3)cc(=O)c2c1O (configuration not stated)	> 100 µM	42.8 µM
NCCOCCOCC(=O)O	> 100 µM	
Cc1ccc(N=Nc2c(O)ccc3ccccc23)c(C)c1	> 100 µM	

SMILES	TGI	GI50
O=C(NC1=C(Cl)C(=O)c2ccccc2C1=O)C(=O)c1c(O)c2ccccc2oc1=O	20.5 µM	
O=C(O)c1c(CC(Cc2ccccc2)C(=O)O)ccc2c1CCC2 (configuration not stated)	> 100 µM	
CN1COCN=C1NC#N	> 100 µM	
COc1ccc(C2C3=C(COC3=O)Oc3cc4c(cc32)OCO4)cc1OC (configuration not stated)	> 100 µM	
O=C(Nc1ccccc1)N1C(c2ccccc2)=N[C@@H](c2ccccc2)[C@@H]1c1ccccc1	70.8 µM	
CC1(C)CC(=O)C2=C(C1)NC(=S)C(C#N)C2c1ccccc1 (configuration not stated)	> 100 µM	
CN(C)Cc1cc(/C=C/C(=O)c2ccc(Br)cc2)cc(CN(C)C)c1O	76 µM	
COc1c(NC(C)=O)c2ccccc2c2ccccc12	> 100 µM	
COC(=O)N[C@@H](C)CNc1nccc(-c2cn(C(C)C)nc2-c2cc(Cl)cc(NS(C)(=O)=O)c2F)n1	> 100 µM	> 100 µM
CCOC(=N)CC(=O)Nc1ccccc1CC	> 100 µM	
C#CCn1c(I)cc2c(c1=O)COC(=O)[C@]2(O)CC	> 100 µM	
COc1ccc(/C=C/C(=O)c2cc(CN(C)C)c(O)c(CN(C)C)c2)cc1	> 100 µM	
c1ccc(N2CCN(CCN3CCc4c([nH]c5ccccc45)C3c3cccnc3)CC2)cc1 (configuration not stated)	> 100 µM	
Nc1ccnc2c1ncn2[C@H]1C[C@H](O)[C@@H](CO)O1	> 100 µM	
CCOC(=O)C(Cc1cc(OC)c(CC(C(=O)OCC)C(=O)OCC)cc1OC)C(=O)OCC	> 100 µM	
Cc1cc2ccccc2n2c1nc1ccc(O)cc12	> 10 µM	
CC(C)(C)N=C1C(=O)C2(C)CCC1C2(C)C (configuration not stated)	> 100 µM	
O=C(O)C1CC2C=CCC(C2)C1 (configuration not stated)	> 100 µM	
COc1ccc(C(=O)c2ccccc2)c(O)c1	> 100 µM	> 100 µM
Cc1nc(C(=O)OCc2ccccc2)cc(OCc2ccccc2)c1C	> 100 µM	34.5 µM
C#CC(O)/C=C/C(O)CCCC(O)CC#CC(O)C#CCCCCC(O)/C=C/CCCC(=O)CCCCCCCCCCCCCCCC(O)C(O)C#CC(=O)O (configuration not stated)	> 25 µM	
c1ccc(C2N=C(c3ccccn3)C(c3ccccn3)=NC2c2ccccc2)cc1 (configuration not stated)	> 100 µM	
CCOC(=O)/C=C/c1ccc([N+](=O)[O-])o1	> 100 µM	79.6 µM
C=C(c1ccccc1)c1cc2c(=O)[nH]ccc2n1C	> 100 µM	
CNC(=O)NCCCCC(NC(C)=O)C(=O)NCc1ccccc1 (configuration not stated)	> 100 µM	
CC(C)(C)c1cc(C(C)(C)C)c(SC2OC(CO)C(O)C(O)C2O)c(O)c1O (configuration not stated)	30.8 µM	
O=C1C=C(NCCc2ccccc2)c2ccccc2C1=O	3 µM	
